Data from PubChem BioAssay AID1476 (National Center for Advancing Translational Sciences (NCATS), 2009).
Out of some 200,000 compounds screened, about 4,500 (2.2%) were called active. The inconclusive results got no clear call from the source; some entries with a clear call stand among them for comparison. The call rests on the fitted dose curve; in most records, active means well fitted inhibition curve with a large enough effect; inconclusive means small, poorly fitted or top-dose-only effect, or effect the other way; inactive means flat fitted curve, though single readings scatter. Where the call is inconclusive, the potency comes from a doubtful curve fit.

biological target: Cruzipain (Trypanosoma cruzi) (UniProt P25779); experiment: qHTS Assay for Promiscuous and Specific Inhibitors of Cruzain (without detergent); conditions: purified cruzain, Z-FR-AMC fluorescence, no detergent; further: nearly all actives have a fitted effect of over 40% in size;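 on max response, negative = inhibition: plate controls were enzyme without inhibitor for no effect and buffer without enzyme for full effect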
Method in brief: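 Purified cruzain at 1.5 nM, pre-incubated 15 min with compound at room temperature in 100 mM sodium acetate pH 5.5, 5 mM DTT, 0.00005% Triton X-100. Reaction started with 2 uM Z-FR-AMC; AMC fluorescence increase over 60 s gives rate.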
Potency means the concentration at half of the fitted maximal effect; tags describe the fitted curve by direction and shape.

Chain of UniProt P25779 (P25779 whole entry, looked up): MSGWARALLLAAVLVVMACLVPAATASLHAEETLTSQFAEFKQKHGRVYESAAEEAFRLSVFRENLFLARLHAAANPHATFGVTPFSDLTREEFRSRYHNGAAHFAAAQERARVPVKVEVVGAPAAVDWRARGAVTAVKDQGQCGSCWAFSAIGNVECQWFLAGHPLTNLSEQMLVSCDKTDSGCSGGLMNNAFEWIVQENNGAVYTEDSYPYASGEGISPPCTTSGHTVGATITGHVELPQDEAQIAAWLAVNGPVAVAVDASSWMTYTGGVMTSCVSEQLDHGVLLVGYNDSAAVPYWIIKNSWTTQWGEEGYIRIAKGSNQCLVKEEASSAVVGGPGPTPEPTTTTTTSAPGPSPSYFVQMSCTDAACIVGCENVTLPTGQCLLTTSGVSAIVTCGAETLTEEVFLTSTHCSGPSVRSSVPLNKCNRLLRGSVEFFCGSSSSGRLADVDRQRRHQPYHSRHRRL

Structure (SMILES)	max response, negative = inhibition	Potency
O=Cc1ccc(Cl)cc1	inactive: 5.98%	
CN(/N=C\c1ccc(O)c(O)c1)c1nc(-c2ccccc2)cc(-c2ccccc2)n1		inconclusive: 6.31 µM [activator, single point]
Cc1cccc(C2N3CC4(C(C)C)CN2CC(C(C)C)(C3)C4=O)c1 (stereo not given)	inactive: -3.26%	
O=C(Nc1ccccc1)N1CC[C@@]2(CCCN(C(=O)c3ccncc3)C2)C1	inactive: -6.15%	
CCC(Cn1nnc2ccccc2c1=O)NC(=O)Nc1cc(Cl)ccc1OC (stereo not given)	inactive: 2.27%	
COC(=O)c1cccc(S(=O)(=O)N(Cc2ccco2)Cc2cc3ccc(OC)cc3[nH]c2=O)c1		inconclusive: 39.8 µM [activator, single point]
O=C(N/N=C/c1cccc([N+](=O)[O-])c1)c1cccs1	inactive: -3.31%	
Cc1ccc(Cl)cc1NC(=O)NC1COc2ccccc2C1 (stereo not given)	inactive: -7.18%	
c1ccc(CC2CCN(c3nc4ccccc4n4nnnc34)CC2)cc1		active: 25.1 µM
CCN(CC)C(=O)c1sc2c(c1C)c(=O)n(-c1ccc(C)c(C)c1)c(=O)n2CC(=O)Nc1ccc(F)cc1		inconclusive: 39.8 µM [activator, single point]
Cc1ccc(S(=O)(=O)Cn2nnnc2C(c2ccccn2)N2CCN(c3ccccc3)CC2)cc1 (stereo not given)		inconclusive: 31.6 µM [activator, single point]
CCc1ccc(CN(Cc2ccco2)C(=O)c2cc(-c3ccc(Cl)cc3)on2)cc1	inactive: -1.74%	
O=C(Nc1cccc(-c2nc3ccccc3s2)c1)c1ccc2c(c1)OCO2		inconclusive: 39.8 µM [inhibitor, single point]
CC(=O)c1ccc(N2CCN(S(=O)(=O)c3cccc(S(=O)(=O)N4CCOCC4)c3)CC2)cc1		inconclusive: 2.51 µM [activator, full curve, poor fit]
CC1(C)NC(=O)N(CCCCOc2ccc3c(c2)CCC3)C1=O		inconclusive: 31.6 µM [activator, single point]
CCOC(=O)C1=C(C)NC2=C(C(=O)CCC2)C1c1cc(OC)ccc1OC (stereo not given)	inactive: -3.79%	
CCOc1cc(C(=O)OCc2cc(=O)n3c(C)csc3n2)cc(OCC)c1OCC	inactive: -1.07%	
CC(=O)Nc1ccc(S(=O)(=O)NCC2CCC(C(=O)NCCCOC(C)C)CC2)cc1 (stereo not given)	inactive: 9.27%	
Cc1ccc(-n2sc3ccccc3c2=O)cc1S(=O)(=O)N1CCCCC1		inconclusive: 12.6 µM [inhibitor, partial curve, poor fit]
CCCCc1nc(Cl)c(CO)n1Cc1ccc(-c2ccccc2-c2nn[nH]n2)cc1		inconclusive: 39.8 µM [activator, single point]
NC1=NC2(CCN(Cc3ccccc3)CC2)n2c(nc3ccccc32)N1	inactive: 20.3%	
Cc1cc(N/C=C/C(=O)c2ccc(Br)cc2)no1		inconclusive: 39.8 µM [inhibitor, single point]

Structure (SMILES)	max response, negative = inhibition	Potency
COc1cccc(-c2nnc(NC(=O)c3ccc(S(=O)(=O)N4CCOCC4)cc3)o2)c1		inconclusive: 25.1 µM [activator, single point]
Cn1nc(-c2ccc(Cl)cc2)c2cc(C(=O)NCC3CCCO3)sc21 (stereo not given)		inconclusive: 39.8 µM [activator, single point]
O=C(c1ccccc1)N1CCc2cc(CNS(=O)(=O)c3ccccc3Cl)ccc21	inactive: -6.18%	
CCOC(=O)Cc1nnc(NC(=O)CSc2nnc3c4ccccc4n(C)c3n2)s1		inconclusive: 31.6 µM [activator, single point]
Cc1ccccc1NC(=O)Cn1c(=O)n(Cc2ccc3c(c2)OCO3)c(=O)c2oc3ccccc3c21	inactive: 5.03%	
CC(C)(C)C(=O)[C@H]1[C@H](c2ccccc2)[C@@]2(N=C(c3ccccc3)OC2=O)C2c3ccccc3C=NN21 (stereo not given in full)		inconclusive: 39.8 µM [inhibitor, single point]
O=C(CCC(=O)N1CCN(S(=O)(=O)c2ccc(Cl)cc2)CC1)NC1CCCc2ccccc21 (stereo not given)		inconclusive: 39.8 µM [activator, single point]
Cc1cc(C)c(Cn2c3ccccc3c3cnn(CC(=O)NCCCc4ccccc4)c(=O)c32)c(C)c1		inconclusive: 7.94 µM [inhibitor, single point]
Cc1ccccc1Nc1c(-c2ccsc2)nc2c(C)cccn12	inactive: 5.27%	
O=C(NCc1cccc(Cl)c1)c1cccn1-c1nnc(N2CCCC2)s1	inactive: -2.17%	
Cn1nc(CC(=O)NC2CCCCCCCCCCC2)c2ccccc2c1=O		inconclusive: 6.31 µM [inhibitor, single point]
CCC(=O)N1CCc2cc(S(=O)(=O)CCC(=O)N3CCN(c4cccc(C)c4)C(C)C3)ccc21 (stereo not given)		inconclusive: 39.8 µM [activator, single point]
Cc1cc(Cl)ccc1OCC(=O)NC(=S)Nc1ccccc1N1CCOCC1		inconclusive: 39.8 µM [inhibitor, single point]
O=c1c2ccccc2nc(-c2ccc(Cl)cc2Cl)n1-c1nccs1		inconclusive: 31.6 µM [inhibitor, single point]
Cc1nn(C)cc1CN(C)C(=O)c1nn2c(c1Cl)NC(c1cccs1)CC2C(F)(F)F (stereo not given)		inconclusive: 31.6 µM [activator, partial curve]
N=c1c(C(=O)NCC2CCCO2)cc2c(=O)n3ccccc3nc2n1Cc1cccnc1 (stereo not given)		inconclusive: 31.6 µM [inhibitor, single point]
Cc1ccc(Cl)cc1N1CCN(C(c2ccc(F)cc2)c2nnc(-c3ccccc3)o2)CC1 (stereo not given)		active: 6.31 µM
c1cncc(-c2nc(-n3ccnc3)c3ccccc3n2)c1	inactive: 1.27%	
COc1ccccc1-c1[se]c2ccccc2c1I		inconclusive: 31.6 µM [inhibitor, single point]
CCOc1ccc(CCNC(=O)CSc2cc(=O)n(C)c3ccccc23)cc1OCC		inconclusive: 39.8 µM [activator, single point]
Oc1[nH]c2ccccc2c1/C=N/N1CCCCC1		inconclusive: 39.8 µM [inhibitor, single point]
CCC(/C=C/C(C)C1CCC2C3CC=C4CC(O)CC[C@@]4(C)C3CC[C@@]12C)C(C)C (stereo not given in full)	inactive: -7.21%	

Structure (SMILES)	max response, negative = inhibition	Potency
O=C1CCCC(C(C(=O)OCc2ccccc2)C(=O)OCc2ccccc2)C1 (stereo not given)	inactive: 2.07%	
COc1ccc(N(C(=O)C(C)C)S(=O)(=O)c2ccc3c(c2)n(C)c(=O)n3C)cc1		inconclusive: 39.8 µM [activator, single point]
Cc1cc(SCC(=O)c2ccc(Br)cc2)cc(C)[o+]1		inconclusive: 3.98 µM [inhibitor, partial curve]
CCCCNC(=O)c1ccc2c(=O)n(-c3ccccc3)c(=O)[nH]c2c1	inactive: -0.95%	
COc1ccc(CCC(=O)NC2CC(=O)N(c3ccc(C)c(C)c3)C2)cc1 (stereo not given)	inactive: 7.64%	
Cc1cc(C(=O)CSc2nnc(-c3ccccc3)o2)c(C)n1CC1COc2ccccc2O1 (stereo not given)		active: 20 µM
O=C(CSCc1cccc(CSCC(=O)Nc2ccc3ccccc3c2)n1)Nc1ccc2ccccc2c1		inconclusive: 31.6 µM [inhibitor, single point]
CCOc1ccc(S(=O)(=O)Nc2ccc3c(c2)c(C(C)=O)c(C)n3S(=O)(=O)c2ccc(OCC)cc2)cc1		inconclusive: 3.98 µM [inhibitor, full curve]
Cc1cc(C)c(NC(=O)Cn2c(=O)n(CCC(=O)NCc3ccc4c(c3)OCO4)c(=O)c3ccccc32)c(C)c1	inactive: -3.5%	
O=C(Nc1cccc(NC(=O)c2ccc(-c3ccc(Br)cc3)o2)c1)c1ccco1		active: 31.6 µM
CCOC(=O)c1c(S(=O)(=O)N2CCCC(C(=O)Nc3ccc(C)cc3C)C2)c(C)n(CC)c1C (stereo not given)		inconclusive: 31.6 µM [activator, single point]
CCOC(=O)c1ccccc1NC1(c2ccc(OC)cc2)C(=O)c2ccccc2C1=O		inconclusive: 31.6 µM [inhibitor, single point]
COc1ccc(S(=O)(=O)N2CCOCC2)cc1NC(=O)c1ccccc1-c1ccc(C(F)(F)F)cc1		inconclusive: 7.94 µM [activator, single point]
CCCOc1ccc(-c2nn(-c3ccccc3)cc2/C=C2\SC(=S)N(C3CCS(=O)(=O)C3)C2=O)cc1 (stereo not given)		active: 3.98 µM
CCc1ccc(NC(=O)c2noc3c2CCCCC3)cc1		inconclusive: 39.8 µM [inhibitor, single point]
CC(C)c1ccc(NC(=O)C2CCCN(S(=O)(=O)c3cccc4nonc34)C2)cc1 (stereo not given)	inactive: 2.34%	
N#Cc1cc2c(nc1SCC(=O)Nc1sc3c(c1C#N)CCC3)CCCCC2		inconclusive: 39.8 µM [inhibitor, single point]
COC(=O)c1ccc(N=NNc2cccc(Br)c2)cc1		inconclusive: 39.8 µM [inhibitor, single point]
COc1cc(C(=O)N2CCN(c3ccc([N+](=O)[O-])cc3)CC2)ccc1OCc1c(C)noc1C		inconclusive: 39.8 µM [activator, single point]
CC1(C)[C@@H](O)CC[C@]2(C)C3C(=O)C=C4C5C[C@@](C)(C(=O)O)CC[C@]5(C)CC[C@@]4(C)[C@]3(C)CC[C@@H]12 (stereo not given in full)		inconclusive: 12.6 µM [activator, partial curve]
COC(=O)[C@@]1(Cc2ccccc2)[C@H]2c3cc(C(=O)N(C)C)n(Cc4ccsc4Br)c3C[C@H]2CN1C(=O)c1ccccc1		inconclusive: 25.1 µM [activator, single point]
